Article PMC4336329 (PLoS ONE, 2015)
Screen size: about 310,000 compounds; about 14,000 (4.5%) showed an effect of 50% or more. The effect is printed as a negative number. Some of the results follow.

Each molecule was assayed against human ether-à-go-go-related gene (hERG) potassium channel (human, UniProt Q12809) (assay: primary screen, population patch clamp on CHO cells stably expressing hERG).
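Note: peak tail current of the secondary pulse compared with the same well before compound.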

Sequence of human ether-à-go-go-related gene (hERG) potassium channel (Q12809 whole entry, looked up): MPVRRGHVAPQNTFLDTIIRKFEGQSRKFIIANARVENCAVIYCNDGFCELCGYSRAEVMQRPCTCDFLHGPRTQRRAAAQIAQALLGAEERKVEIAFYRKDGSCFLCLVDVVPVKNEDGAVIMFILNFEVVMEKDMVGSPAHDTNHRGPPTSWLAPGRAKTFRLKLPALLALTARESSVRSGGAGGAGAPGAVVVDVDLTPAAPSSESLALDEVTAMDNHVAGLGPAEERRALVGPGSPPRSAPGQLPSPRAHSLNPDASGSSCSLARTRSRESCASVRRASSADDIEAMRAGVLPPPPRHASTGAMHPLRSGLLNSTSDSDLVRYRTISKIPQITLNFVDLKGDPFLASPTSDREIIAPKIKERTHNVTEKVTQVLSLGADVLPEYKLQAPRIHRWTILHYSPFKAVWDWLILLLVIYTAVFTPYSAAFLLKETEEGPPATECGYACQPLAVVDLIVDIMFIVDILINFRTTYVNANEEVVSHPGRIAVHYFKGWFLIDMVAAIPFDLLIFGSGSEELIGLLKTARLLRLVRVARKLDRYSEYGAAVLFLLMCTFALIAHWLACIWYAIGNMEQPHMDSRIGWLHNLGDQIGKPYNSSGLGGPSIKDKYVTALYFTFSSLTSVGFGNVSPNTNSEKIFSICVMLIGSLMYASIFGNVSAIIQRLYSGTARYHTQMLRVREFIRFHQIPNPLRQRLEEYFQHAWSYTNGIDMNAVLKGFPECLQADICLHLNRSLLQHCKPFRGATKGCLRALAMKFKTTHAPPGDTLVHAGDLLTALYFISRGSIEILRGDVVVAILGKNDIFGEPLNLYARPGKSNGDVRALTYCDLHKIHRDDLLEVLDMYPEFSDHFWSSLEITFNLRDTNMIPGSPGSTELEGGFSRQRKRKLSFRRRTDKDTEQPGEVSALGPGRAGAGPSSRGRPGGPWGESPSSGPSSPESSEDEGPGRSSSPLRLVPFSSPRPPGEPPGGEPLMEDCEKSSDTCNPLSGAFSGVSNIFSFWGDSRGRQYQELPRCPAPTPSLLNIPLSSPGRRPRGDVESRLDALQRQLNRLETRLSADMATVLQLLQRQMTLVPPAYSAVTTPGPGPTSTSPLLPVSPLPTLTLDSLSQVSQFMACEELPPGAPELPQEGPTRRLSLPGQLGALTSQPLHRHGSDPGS

| SMILES | hERG current change (%, negative = inhibition) at 10uM [%] |
| --- | --- |
| CCOc1ccc(S(=O)(=O)NCCC(=O)Nc2cccc(C(=O)OC)c2)cc1 | -13.7 |
| CNC(=S)N/N=C(\C)c1ccc(C)c(C)c1 | -3.4 |
| Cn1ccsc1=NC(=O)c1ccc([N+](=O)[O-])o1 | 13.1 |
| Cc1cc(C)c(NC(=O)COc2ccccc2C(=O)Nc2ccc3c(c2)oc2ccccc23)c(C)c1 | 0.161 |
| O=C(Nc1cccc(-n2cnnn2)c1)c1ccccc1Br | -14.4 |
| C/C(=N\NC(=O)C(O)c1ccccc1)c1ccc(Cl)s1 (stereo not shown) | -3.54 |
| CCCC(=O)NCCCc1nc2ccccc2n1CC | -6.84 |
| O=C(Nc1cnc2ccccc2c1)c1cccnc1 | 12.1 |
| CC(=O)Nc1csc2ccccc12 | 3.39 |
| CC(=O)NCCNC(=O)c1ccc(NC2=NC3CS(=O)(=O)CC3S2)cc1 (stereo not shown) | 8.34 |
| Cc1cc(C)c2nc(N3CCCC(C(=O)NCCN4CCOCC4)C3)sc2c1 (stereo not shown) | -9.94 |
| CCNC(=S)N1CCC(C(=O)c2ccc(Cl)cc2)CC1 | -16.8 |
| CCN1CCN(C(=O)C2CCN(S(=O)(=O)c3ccc(Br)cc3)CC2)CC1 | -17.3 |
| Cc1cc(C)c(S(=O)(=O)NCc2ccc3c(c2)OCO3)cc1C | -6.86 |
| COc1ccc(CCNC(=O)C2CCCN(c3nc(C)cc(C)n3)C2)cc1 (stereo not shown) | -3.89 |
| COc1ccc(C(=O)NCCn2cc(SCC(N)=O)c3ccccc32)cc1 | 3.5 |
| O=C(NCc1ccncc1)c1ccc(Cn2cc(C(F)(F)F)ccc2=O)cc1 | 17.4 |
| O=C(Nc1ccc(N2CCN(C(=O)c3ccccc3F)CC2)cc1)c1cncc(Br)c1 | 2.88 |
| O=C(COC(=O)c1cccc([N+](=O)[O-])c1)c1ccc2c(c1)OCO2 | -12.7 |
| Cc1c(Cc2ccccc2)c(=O)oc2c(C)c(OC(C)C(=O)NCC3CCC(C(=O)O)CC3)ccc12 (stereo not shown) | 15 |
| COc1cc2c(cc1NC(=O)c1ccncc1)oc1ccccc12 | -3.29 |
| NNC(=O)Cn1c(-c2ccccn2)nc2ccccc21 | 14.9 |

| SMILES | hERG current change (%, negative = inhibition) at 10uM [%] |
| --- | --- |
| CC(C)c1ccc(NC(=O)[C@H](Cc2c[nH]c3ccccc23)NC(=O)[C@@H]2Cc3ccccc3CN2)cc1 | -5.18 |
| COc1ccc(C)cc1NC(=O)CSc1ccc(Cl)cc1 | 11.1 |
| CCOC(=O)CN1C(=N)N(c2nc(NC(C)C)nc(NC(C)C)n2)CC1=O | -73.8 |
| CCC(C)N(C(=O)COc1ccc(Br)cc1C=O)C1CCS(=O)(=O)C1 (stereo not shown) | -33.2 |
| Cc1cccc(NC(=O)Cn2nnc3ccccc32)c1 | 17.8 |
| COC(=O)c1ccc(S(=O)(=O)c2ccc(C(=O)OC)s2)s1 | 16.3 |
| Cc1cc(C)cc(N(CCC#N)C(=O)CSc2n[nH]c(N)n2)c1 | 12.6 |
| CCCCn1c(N)c(N(CC(C)C)C(=O)c2cccc(S(=O)(=O)N(C)c3ccccc3)c2)c(=O)[nH]c1=O | 11.9 |
| COC(=O)c1ccc(C2C(C#N)=C(N)Oc3cc(N)ccc32)cc1 (stereo not shown) | -6.94 |
| Cc1nn(-c2ccc(Cl)c(Cl)c2)c(=O)c2ccccc12 | -0.0448 |
| CC(=O)Nc1ccc(S(=O)(=O)NCC(=O)OCC(=O)NC(=O)C2CCCCC2)cc1 | 21.1 |
| O=C(Nc1ccccc1Cl)c1ccc2nccnc2c1 | 0.448 |
| COCCNC(=O)c1ccccc1NS(=O)(=O)c1ccc(Br)s1 | 0.678 |
| CCOc1ccc(NS(=O)(=O)c2ccc(-c3cnc(C4CC4)o3)cc2)cc1 | 16.6 |
| Cc1ccc(OCC(=O)N(Cc2nnc(-c3ccccc3Cl)o2)C2CC2)cc1C | -44.1 |
| CCOc1ccc(S(=O)(=O)N2CCN(C(=O)c3ccc(-n4cncn4)c([N+](=O)[O-])c3)CC2)cc1 | -71.5 |
| O=C(COC(=O)c1ccccn1)NCCCc1ccccc1 | 5.64 |
| COc1ccc(C(c2nnnn2C2CCCC2)N2CCN(c3ccccc3)CC2)cc1 (stereo not shown) | -10.7 |
| Cc1cc2c(C)cc(=O)[nH]c2cc1NC(=O)CCl | 14.3 |
| O=C1CN(C(=O)c2cccc(F)c2)C(c2ccc(F)cc2)c2cc(F)ccc2N1 (stereo not shown) | -15.4 |
| Cc1ccc(C2(c3noc(CN(C)CC4COCCO4)n3)CCCC2)cc1 (stereo not shown) | 7.16 |
| O=C(CCC(=O)OCC(=O)c1ccc(-c2ccccc2)cc1)Nc1cccc2cccnc12 | 11 |

| SMILES | hERG current change (%, negative = inhibition) at 10uM [%] |
| --- | --- |
| COc1ccc(-c2c(NC(C)=O)n(C)c3ccccc3c2=O)cc1 | 0.685 |
| CCCCC(=O)Nc1ccc2c(c1)C(=O)NC2=O | 2.21 |
| CN(C1CCCCC1)S(=O)(=O)c1cccc(C#N)c1 | 0.523 |
| Cc1cc(NS(=O)(=O)c2ccc(NC(=O)C(C)Oc3cccc(C)c3C)cc2)nc(C)n1 (stereo not shown) | 9.74 |
| CSc1ccccc1NC(=O)CN(C)CC(=O)Nc1cc(C)ccc1C | -2.06 |
| CC(=O)OCCCN1C(=O)c2cccc3cc(Br)cc(c23)C1=O | 4.74 |
| CC(=O)c1ccc(NC(=S)NC(=O)/C=C/c2ccco2)cc1 | 11.8 |
| CC(C(=O)NC1CCCC1)N(Cc1ccc2c(c1)OCO2)C(=O)c1snc(C(N)=O)c1N (stereo not shown) | -14.6 |
| CCN1CCN(C(=O)c2c(-c3c(Cl)cccc3Cl)noc2C)CC1 | 20.9 |
| CCOC(=O)N1CCC(NC(=O)c2cnn3c2NC(c2ccco2)CC3C(F)(F)F)CC1 (stereo not shown) | -13.5 |
| CCc1ccc(CC)c(S(=O)(=O)Nc2ccc(O)c(C(=O)O)c2)c1 | -7.87 |
| CCOC(=O)C(NCCCO)c1ccccc1 (stereo not shown) | -1.98 |
| CN(C(=O)c1ccccn1)c1nnc(-c2cccnc2)s1 | 7.9 |
| O=C(NCC(=O)N(CCN1CCOCC1)C(C(=O)NC1CCCC1)c1cccs1)c1ccco1 (stereo not shown) | -0.929 |
| c1csc(-c2nc3ccccn3c2NC2CCCCC2)c1 | 8.81 |
| Cc1nn(C)c(C)c1/C=C/C(=O)O | 16.3 |
| Cc1cc2nc3c(=O)n(Cc4ccccc4)c(=O)[nH]c3nc2cc1N | 6.76 |
| C=CCNC(=O)/C(=C/c1ccco1)NC(=O)c1ccc(Br)o1 | -4.84 |
| Cc1ccccc1Oc1ccccc1N | -9.92 |
| CCCCCCC(=O)N/N=C/Cc1ccccc1 | -7.71 |
| Cc1cc(Cl)c(S(=O)(=O)NCc2cccnc2)cc1OCC(=O)NC1CCCCC1 | -53.2 |
| Nc1nonc1C(=Nc1ccc(Br)cc1)NO | 8.76 |

| SMILES | hERG current change (%, negative = inhibition) at 10uM [%] |
| --- | --- |
| COc1ccc(C(=O)O)cc1NCc1ccc(C)s1 | 27 |
| COc1cc(OC)c(C2NC(=O)CCC2[N+](=O)[O-])cc1OC (stereo not shown) | 9.82 |
| O=C(Nc1ccccc1Cl)c1ccc2nc(N3CCOCC3)sc2c1 | 7.2 |
| COc1ccc(/C(N)=N/OC(=O)CSc2ccccc2)cc1OC | -0.5 |
| COc1ccc(/C=C/C(=O)Nc2sc(Cc3ccccc3)c(C)c2C(N)=O)cc1 | 2.59 |
| O=C(NCc1nnnn1-c1ccc(F)cc1)c1ccc([N+](=O)[O-])o1 | -23.6 |
| CC(=O)c1ccccc1C(=O)NCc1cccnc1 | 11.6 |
| CCOC(=O)N1CCC(N2CCN(S(=O)(=O)c3ccc(OC)cc3)CC2)CC1.O=C(O)C(=O)O | -8.89 |
| Cc1cc(Cl)ccc1C(=O)C1CCCN(C(=O)c2cnsn2)C1 (stereo not shown) | -9.68 |
| COc1ccc(OC)c(NC(=O)c2ccc(CN(c3cc(Cl)ccc3C)S(=O)(=O)c3ccccc3)cc2)c1 | -10.1 |
| CCOC(=O)N1CCN(C(=O)C2CCCN(S(=O)(=O)c3cc(C)ccc3OC)C2)CC1 (stereo not shown) | -5.57 |
| COc1ccc(C(O)P(=O)(OCc2ccccc2)c2ccc(N(C)C)cc2)cc1 (stereo not shown) | 15.4 |
| CCCOc1c(Br)cc(C2C3=C(CCCC3=O)N(C)C3=C2C(=O)CCC3)cc1OC | -24.5 |
| CCOc1ccc(OCc2cccc(C(=O)N3CCCC3)c2)cc1 | -11.6 |
| COC(c1ccc(Cl)cc1)(c1ccc(Cl)cc1)C(Oc1nccc(C)n1)C(=O)O (stereo not shown) | 19.1 |
| Cc1cc[n+](CC2OCc3ccccc3CO2)cc1.[Br-] | 14.8 |
| C/C(=N\NC(=S)NC1CCCCC1)c1cccs1 | -3.57 |
| Clc1ccc(-c2nc3ncccn3c2Nc2ccc3c(c2)OCCO3)cc1 | 22.2 |
| COc1ccc(CNC(=O)C(NC(C)=O)C(=O)Nc2ccc(C(C)C)cc2)cc1 (stereo not shown) | 19.5 |
| O=C1CCc2cc(S(=O)(=O)N3CCN(c4ccccc4)CC3)cc3c2N1CCC3 | 1.52 |
| Cc1cc(C)cc(NC(=O)CSc2nc3c(c(=O)[nH]2)CN(Cc2ccc(F)cc2)CC3)c1 | -11 |
| N#Cc1cnc(Oc2ccc(Cl)cc2)nc1N | 10.9 |
